To fix the notation:
B1: CPEB3 Ribozyme (parent)
chain: UAACAGGGGGCCACAGCAGAAGCGUUCACGUCGCAGCCCCUGUCAGAUUCUGGUGAAUCUGCGAAUUCUGCUGUAUAUCUC

The source gives no read counts; variants with many changes may rest on few reads.

Variants of B1 are the subject of the series. Briefly: self-cleavage, relative activity (ratio to wild type); higher = more cleavage; in vitro, sequencing. In outline: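 Libraries of CPEB3 self-cleaving ribozyme mutants came from rounds of error-prone PCR and carried barcodes, which DNA sequencing matched to variants. In vitro transcription used T7 RNA polymerase at 37°C for 5 hours, with a further 15 min in DNase I before EDTA stopped the reaction; the ribozymes cleaved during both steps. The RNA was reverse transcribed with template switching and sequenced on Illumina. Relative activity is the cleaved/total read fraction of a variant divided by that of the unmutated ribozyme, averaged over three batches with at least 5 reads.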
Turning to UAACAGGAGGCCACAGCAGGAGCGUUCACGUCGCAGCCCCCGUCAGACUCUGGUGAACCUGCGAGUUCUGCCGUAUAUCUC [G8A A20G U41C U48C U58C A65G U72C], the self-cleavage amounted to 0.05. With UAACAGGAGGCCACAGCAGAUGCGUUCACGUCGCAGCCCCUGUCAGACUCAGGUGAGUCUGCGAAUUCUGCUGUAUAUCUC [G8A A21U U48C U51A A57G], the self-cleavage turned out to be 0.08. In the case of UAACAGGAGGCCACAGCAGAAGCGUUCUCGUCGCAGCCCCAGUCAGAUUCUGGUGAAUCUGCGAAGUCUGCUGUAUAUCUC [G8A A28U U41A U66G], the self-cleavage amounted to 0.05. The result for UAACAGGAGGCCACAGCAGAAGCGUUCUCGUCGCAGCCCCAGUUGGAUUCUGGUGAAUCUGCGAAUUCUGCUGUAUAUCUC [G8A A28U U41A C44U A45G] reads 0.06. The result for UAACAGGAGGCCACAGCAGAAGCGUUCGCGUCUCAGCCCCUGUCAGAUUCUGGUGAAUCCGCGAAUUCCGCUGUAUAUCUC [G8A A28G G33U U60C U69C] reads 0.11. For UAACAGGAGGACGCAGCAGAAGCGUUCACGUCGCAGCCCCUGUCAGAUUCUGGUGAAUCUGCGAAUUCUGCUGUAUAUCUC [G8A C11A A13G], the self-cleavage came to 0.07. Under UAACAGGAGGCCACAGCAGAAGCGUUCACGUCGCAGCCCCUGUCAGUUUCUGGUGGAUCUGCGAAUUCUGCUGUAUACCUC [G8A A47U A56G U78C] stands 0.21.

Take UAACAGGAGGCCACAGCAGGAGCGUUCACGUCGCAGCCCCUGUCAGACUCUGGUGAAUCUGCGAGUUCUGCUGUAUAUCUC [G8A A20G U48C A65G]: the self-cleavage was found to be 0.11.

UAACAGGAGGCCACAGCAGAAGCGUUCAGGUCGCAGCCCCUGUCAGAUUCUGGUGAAUCUGCGAAUUCUGCCGUAUAUCUC [G8A C29G U72C]: the self-cleavage was found to be 0.09. UAACAGGAGGCCACAGCAGAAGCGUUCGCGUCGCAGCCCCUGUCAGAUUCUGGUGAAUCUGCGAAUUCUGCUGUACAUCCC [G8A A28G U76C U80C]: the self-cleavage was determined as 0.26. UAACAGGAGGCCACAGCAGUAGCGUUCACGCCGCAGCCCCUGUCAGAUCCUGGUGAAUCUGCGAAUUCUGCUGUAUAUCUC [G8A A20U U31C U49C]: the self-cleavage was determined as 0.05. Turning to UAACAGGAGGCCACAGCAGAAGCGUUCACGUCGCAGCCCCUGUCUGAUCCUGGUGAAUCUGCGAAUUCUGCUGUAUAUCUC [G8A A45U U49C], the self-cleavage stood at 0.05.

UAACAGGAGGUCACAGCAGGAGCGUUCACGUCGCUGCCCCUGUCAGAUUCUGGUGAAUCUGCGAAUUCUGCUGUAUAUCAC [G8A C11U A20G A35U U80A]: the self-cleavage is 0.04.

For UAACAGGAGGACACUGCAGAAGCGUUCACGUCGCAGCCCCUGUCAGAUUCUGGUGAAUCUGCGAAUUCUGCCGUAUAUCUC [G8A C11A A15U U72C], the self-cleavage worked out at 0.29. As to UAACAGGAGGCCACAGCAGAAGCGUUCAAGUCGCAGCCCCUGUCAGAUUCUUGUGAAUCUGCGAAUUCUGCUGUAUAUCUC [G8A C29A G52U], the self-cleavage came to 0.05.

Consider UAACAGGAGGCCACAGCAGAAGCGUUCACGUCGCAGCCCCUGUCAGGUGCUGGUGAAUCUGCGAAUUCUGCUGUAUAUCUC [G8A A47G U49G], for which the self-cleavage stood at 0.26. Consider UAACAGGAGGCCACAGCAGAAGCGUUUACGUCGCAGCCCCAGUCAGAUUCUGGUGAAUCUGCGAAUUCUGCUGUAUAUCUC [G8A C27U U41A], for which the self-cleavage is 0.29.

For UAACAGGAGGCCACAGCAGGAGCGUCCACGUCGCAGCCCCUGUCUGAUUCAGGUGAAUCUGCGAAUACUGCUGUAUAUCUC [G8A A20G U26C A45U U51A U67A], the self-cleavage worked out at 0.05. With UAACAGGAGGCCACAGCAGUAGCGUUCACGUCGCAGCCCCUGUCAGAUUCUGGUGAAUCUGCUAAUGCUGCUGUAUAUCUC [G8A A20U G63U U67G], the self-cleavage stood at 0.04.

For the variant UAACAGGAGGCCACAGCAGAAGCGUUCACGUCGCAGCCCCUGUCAGAUUCUGGUGUAUCUGCGAACUCUGCUGUAUAUCUC [G8A A56U U66C], the self-cleavage was found to be 0.14. The result for UAACAGGAGGCCACAGCAGAAGAGUUCACGUCGCAGCCCCUCUCAGAUUCUGGUGAAUCUGCGAAUUCUGCUGCAUAUCAC [G8A C23A G42C U74C U80A] reads 0.04; that for UAACAGGAGGCCACAGCAGAAGCGUUCACGUCGCAGCCCCUGUCAGAUUCUGGUGAAUCUGCGGAUUCUGCGGUAUAUCUC [G8A A64G U72G], 0.06; that for UAACAGGAGGCCACAGCAGAAGCGUUCACGUCGCGGCCACUGUCAGAUUCUGGUGAAUCUGCGAAUUCUGCUGUACAUCUC [G8A A35G C39A U76C], 0.33. Under UAACAGGAGGCCACAGCAGAAGCGUUCACGUCGCAGCCCCUGUCGGAUUCUGGUGGAUCUGCGAUUUCUGCAGUAUAUCUC [G8A A45G A56G A65U U72A] stands 0.09; under UAACAGGAGGCCACAGCAGAGGCGUUCACGUCGCAGCCCCUGUCAGAUUCUGGUGAAUCUGCGAAUUCCGCUGUAUAUCUC [G8A A21G U69C], 0.24; under UAACAGGAGGCCACAGCAGUAGCGUUCACGUCGCAGCCCCUGUCAGAUUCUAGUGAAUCUGCGAAUCCUGCUGUAUAUCUC [G8A A20U G52A U67C], 0.06. The result for UAACAGGAGGCCACAGCAGAAGCGUUCACGUCGCGGCCCCUGUCAGAUUCUGGUGAACCUGCGAAUUCUGCUGUAUAUCUC [G8A A35G U58C] reads 0.25; that for UAACAGGAGGCCACAGCAGGAGCGUCCACGUCGCAGCCCCUGUCAGAUUCUGGUGAAUCUGCGAAUUCCGCUGUAUAUCUC [G8A A20G U26C U69C], 0.17. For the variant UAACAGGAGGCCACAGCAGAAGCGUUGACGUCGCAGCCCCUGCCAGGUUCUGGUGAAUCUGCGAAUUCUGCUGUAUAUCCC [G8A C27G U43C A47G U80C], the self-cleavage came out at 0.07. Under UAACAGGAGGCAACAGCAGAAGCGCACACGCCGCAGCCCCUGUCAGAUUCUGGUGAAUCUGCGACUGCUGCUGUAUAUCUC [G8A C12A U25C U26A U31C A65C U67G] stands 0.03. As for UAACAGGAGGCCACAGCAGAAGCGUUCACGUCGCAGCCCCUGUCGGAUUCUGGUGAGUCUGCGAAUUCUGCUGUAUAUCUC [G8A A45G A57G], the self-cleavage stood at 0.35. The result for UAACAGGAGGCCACAGCAGAGGCGUUCACGUCGCGGCCCCAGUCAGAUUCUGGUGAAUCAGCGAAUUCUGCGGUAUAUCUC [G8A A21G A35G U41A U60A U72G] reads 0.06. Under UAACAGGAGGCCACAGCAGAAGCGUUCACGUCGCAGCCCCUGUCGGAUUCCGGCGAAUCUGCGAAUUCUGCUGUAUAUCUC [G8A A45G U51C U54C] stands 0.29; under UAACAGGAGGCCACAGCAGAAGCGUUCACGUCGCGGCCCCUGUCAGAUUCUGGUGAAUCUGCGAAUUCUGCUGCAUAUCUC [G8A A35G U74C], 0.49.
